Laboratory results reported in the BET-seq Pho4 binding data (Le et al. 2018).
The other results are listed elsewhere or left out. The energies were worked out here from pooled read counts, against the library average; single values are noisy.

target: T1, Pho4 (S. cerevisiae) (UniProt P07270); experiment: relative binding free energy (BET-seq); higher = weaker binding; settings: reference: library average
T1 sequence: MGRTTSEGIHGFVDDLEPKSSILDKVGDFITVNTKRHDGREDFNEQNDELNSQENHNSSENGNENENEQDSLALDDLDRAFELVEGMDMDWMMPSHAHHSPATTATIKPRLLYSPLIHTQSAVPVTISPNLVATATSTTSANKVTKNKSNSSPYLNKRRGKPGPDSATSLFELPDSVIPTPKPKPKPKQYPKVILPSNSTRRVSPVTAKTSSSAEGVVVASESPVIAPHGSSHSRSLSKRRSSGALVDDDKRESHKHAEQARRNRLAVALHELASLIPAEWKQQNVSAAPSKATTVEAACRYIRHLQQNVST

Sequence	relative binding free energy
AGGGCCACGTGGGAAG	-0.18 kcal/mol
TGGTCCACGTGATTTG	0.29 kcal/mol
CTTGTCACGTGTATGG	0.07 kcal/mol
TGGGTCACGTGCGATA	0.07 kcal/mol
GTTAACACGTGGGTCA	-0.06 kcal/mol
TGGTGCACGTGGTCCT	-0.17 kcal/mol
CAGGGCACGTGTAGCG	-0.06 kcal/mol
ATTAGCACGTGCGGGT	-0.13 kcal/mol
TGAGGCACGTGCGGTC	-0.19 kcal/mol
TAGTTCACGTGCTGGA	0.25 kcal/mol
GTTTTCACGTGTTGCA	0.34 kcal/mol
CAATTCACGTGTTATG	0.26 kcal/mol
GCAATCACGTGTGTGT	0.23 kcal/mol
GATGACACGTGGGAGG	0.03 kcal/mol
TTTAGCACGTGTGGAA	-0.05 kcal/mol
GGTTGCACGTGTTAGG	0.19 kcal/mol
TTGTGCACGTGGATGC	-0.15 kcal/mol
TCGGGCACGTGCGTGA	-0.16 kcal/mol
TTCTGCACGTGTTTCG	-0.01 kcal/mol
CTGAGCACGTGGGGGT	-0.29 kcal/mol
GGGATCACGTGAGGTG	0.27 kcal/mol

Sequence	relative binding free energy
GTTGACACGTGGCAGG	-0.11 kcal/mol
ATGCACACGTGGGATT	0.11 kcal/mol
GGGGACACGTGAGCGT	0 kcal/mol
TTGATCACGTGCATTA	0.25 kcal/mol
AATTGCACGTGGGCTT	-0.13 kcal/mol
AAATTCACGTGCGTGG	0.22 kcal/mol
TAGGACACGTGGTAGT	-0.14 kcal/mol
AACGTCACGTGTGGGA	0.13 kcal/mol
CTGTTCACGTGTATTG	0.28 kcal/mol
ATGTGCACGTGTTGCA	-0.18 kcal/mol
GACGTCACGTGAAGGT	0.35 kcal/mol
GGGTGCACGTGGACGG	0.1 kcal/mol
GTTGACACGTGGACTT	0.12 kcal/mol
AGGATCACGTGCGGTC	0.24 kcal/mol
ACTAGCACGTGAGGGT	0.18 kcal/mol
AGTATCACGTGATGTA	0.11 kcal/mol
ATCGGCACGTGATGGA	0.08 kcal/mol
AGTGGCACGTGAAGAG	0.29 kcal/mol
TGGGACACGTGGCGCG	-0.12 kcal/mol
AGTGACACGTGCAGTG	-0.17 kcal/mol
TGCTTCACGTGGGATC	0.36 kcal/mol

Sequence	relative binding free energy
GAGTTCACGTGTATTT	0.18 kcal/mol
GTGCGCACGTGGGGTT	-0.31 kcal/mol
GGACTCACGTGGTGAT	0.28 kcal/mol
TACTGCACGTGGGTGA	-0.09 kcal/mol
GTAAGCACGTGATGTG	0.03 kcal/mol
TAATTCACGTGTTTTA	0.28 kcal/mol
TGCCTCACGTGGTGAG	0.23 kcal/mol
GGTGTCACGTGGCTCT	0.11 kcal/mol
GTCTGCACGTGGGATG	0.05 kcal/mol
GTATTCACGTGATGTG	0.33 kcal/mol
GGAGCCACGTGTAGTT	0.09 kcal/mol
GTGGACACGTGGGGCG	-0.07 kcal/mol
GATGGCACGTGAGACG	0.18 kcal/mol
ATGTACACGTGGTCAT	0.01 kcal/mol
ATTAGCACGTGTAGGG	-0.1 kcal/mol
AAGATCACGTGTTAGT	0.16 kcal/mol
TGATTCACGTGCGTCG	0.33 kcal/mol
TCGTTCACGTGGCGGC	0.43 kcal/mol
GTTTGCACGTGTCGTC	0.1 kcal/mol
ACGTGCACGTGGGAGG	-0.14 kcal/mol
GTGCTCACGTGTGGGG	0.18 kcal/mol
